The record followed here is article PMC7315779.

Sequences of proteins named here, by UniProt entry; tags and fusion partners are left off. Residues count along the entry.
UniProt Q5S007: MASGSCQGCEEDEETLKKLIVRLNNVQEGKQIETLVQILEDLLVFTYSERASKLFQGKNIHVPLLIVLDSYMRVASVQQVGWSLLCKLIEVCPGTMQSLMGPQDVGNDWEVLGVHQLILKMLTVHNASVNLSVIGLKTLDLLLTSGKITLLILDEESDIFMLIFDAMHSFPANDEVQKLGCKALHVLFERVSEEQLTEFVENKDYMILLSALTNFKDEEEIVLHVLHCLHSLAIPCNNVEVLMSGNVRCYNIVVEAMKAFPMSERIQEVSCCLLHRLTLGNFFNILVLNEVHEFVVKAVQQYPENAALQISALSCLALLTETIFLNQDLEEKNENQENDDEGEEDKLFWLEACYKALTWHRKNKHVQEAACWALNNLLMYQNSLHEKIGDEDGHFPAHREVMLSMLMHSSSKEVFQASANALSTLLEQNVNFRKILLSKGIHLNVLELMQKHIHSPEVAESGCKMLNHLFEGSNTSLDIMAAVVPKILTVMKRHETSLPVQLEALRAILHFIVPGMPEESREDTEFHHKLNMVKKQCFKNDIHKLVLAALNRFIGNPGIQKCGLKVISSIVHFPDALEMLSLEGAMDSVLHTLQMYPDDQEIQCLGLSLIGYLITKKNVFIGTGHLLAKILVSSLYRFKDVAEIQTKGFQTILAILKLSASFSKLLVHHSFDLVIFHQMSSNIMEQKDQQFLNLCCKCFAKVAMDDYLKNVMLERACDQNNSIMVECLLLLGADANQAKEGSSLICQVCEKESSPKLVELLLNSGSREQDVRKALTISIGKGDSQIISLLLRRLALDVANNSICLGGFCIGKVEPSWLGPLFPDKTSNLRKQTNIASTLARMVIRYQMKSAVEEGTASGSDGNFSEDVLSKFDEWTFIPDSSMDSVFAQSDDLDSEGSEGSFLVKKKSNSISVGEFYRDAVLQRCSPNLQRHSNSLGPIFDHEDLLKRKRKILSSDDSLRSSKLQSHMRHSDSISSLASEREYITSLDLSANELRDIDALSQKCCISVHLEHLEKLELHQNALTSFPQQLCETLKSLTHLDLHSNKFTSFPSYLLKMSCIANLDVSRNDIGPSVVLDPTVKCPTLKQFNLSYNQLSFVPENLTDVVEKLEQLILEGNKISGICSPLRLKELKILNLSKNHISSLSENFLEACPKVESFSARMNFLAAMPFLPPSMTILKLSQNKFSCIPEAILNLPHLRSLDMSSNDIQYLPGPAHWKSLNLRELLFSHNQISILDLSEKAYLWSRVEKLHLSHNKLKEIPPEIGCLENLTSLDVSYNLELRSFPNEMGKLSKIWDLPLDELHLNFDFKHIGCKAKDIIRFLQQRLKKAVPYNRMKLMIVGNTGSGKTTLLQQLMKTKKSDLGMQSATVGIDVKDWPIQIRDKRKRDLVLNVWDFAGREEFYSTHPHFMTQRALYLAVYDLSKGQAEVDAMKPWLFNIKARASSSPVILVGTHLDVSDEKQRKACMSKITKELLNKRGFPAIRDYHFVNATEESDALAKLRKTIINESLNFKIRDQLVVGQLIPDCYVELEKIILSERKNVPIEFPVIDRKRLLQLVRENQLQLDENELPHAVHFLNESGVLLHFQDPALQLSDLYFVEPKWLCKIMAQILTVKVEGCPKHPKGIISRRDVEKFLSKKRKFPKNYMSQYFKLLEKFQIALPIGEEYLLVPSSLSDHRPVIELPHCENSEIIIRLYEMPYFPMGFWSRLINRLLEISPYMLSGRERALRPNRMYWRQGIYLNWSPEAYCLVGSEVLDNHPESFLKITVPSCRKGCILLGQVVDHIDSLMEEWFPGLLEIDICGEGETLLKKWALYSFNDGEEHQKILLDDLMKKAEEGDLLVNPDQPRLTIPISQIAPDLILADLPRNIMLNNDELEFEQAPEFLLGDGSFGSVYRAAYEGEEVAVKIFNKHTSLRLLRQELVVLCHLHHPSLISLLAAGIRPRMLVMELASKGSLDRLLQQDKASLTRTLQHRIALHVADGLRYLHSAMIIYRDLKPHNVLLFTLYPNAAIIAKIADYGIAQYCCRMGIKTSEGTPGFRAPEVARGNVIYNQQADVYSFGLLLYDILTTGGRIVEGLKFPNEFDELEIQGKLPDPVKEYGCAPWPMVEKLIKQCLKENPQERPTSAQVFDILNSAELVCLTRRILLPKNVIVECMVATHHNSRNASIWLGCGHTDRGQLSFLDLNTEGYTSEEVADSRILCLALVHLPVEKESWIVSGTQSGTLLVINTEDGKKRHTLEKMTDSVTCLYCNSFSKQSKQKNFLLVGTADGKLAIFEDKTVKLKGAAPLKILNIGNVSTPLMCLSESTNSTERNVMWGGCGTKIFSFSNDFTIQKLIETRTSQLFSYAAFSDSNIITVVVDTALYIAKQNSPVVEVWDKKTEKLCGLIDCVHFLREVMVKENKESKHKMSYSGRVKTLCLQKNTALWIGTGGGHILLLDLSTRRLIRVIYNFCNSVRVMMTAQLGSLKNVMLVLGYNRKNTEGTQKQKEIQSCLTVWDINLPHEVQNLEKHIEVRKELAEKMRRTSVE
UniProt P11717, residues 41-2491: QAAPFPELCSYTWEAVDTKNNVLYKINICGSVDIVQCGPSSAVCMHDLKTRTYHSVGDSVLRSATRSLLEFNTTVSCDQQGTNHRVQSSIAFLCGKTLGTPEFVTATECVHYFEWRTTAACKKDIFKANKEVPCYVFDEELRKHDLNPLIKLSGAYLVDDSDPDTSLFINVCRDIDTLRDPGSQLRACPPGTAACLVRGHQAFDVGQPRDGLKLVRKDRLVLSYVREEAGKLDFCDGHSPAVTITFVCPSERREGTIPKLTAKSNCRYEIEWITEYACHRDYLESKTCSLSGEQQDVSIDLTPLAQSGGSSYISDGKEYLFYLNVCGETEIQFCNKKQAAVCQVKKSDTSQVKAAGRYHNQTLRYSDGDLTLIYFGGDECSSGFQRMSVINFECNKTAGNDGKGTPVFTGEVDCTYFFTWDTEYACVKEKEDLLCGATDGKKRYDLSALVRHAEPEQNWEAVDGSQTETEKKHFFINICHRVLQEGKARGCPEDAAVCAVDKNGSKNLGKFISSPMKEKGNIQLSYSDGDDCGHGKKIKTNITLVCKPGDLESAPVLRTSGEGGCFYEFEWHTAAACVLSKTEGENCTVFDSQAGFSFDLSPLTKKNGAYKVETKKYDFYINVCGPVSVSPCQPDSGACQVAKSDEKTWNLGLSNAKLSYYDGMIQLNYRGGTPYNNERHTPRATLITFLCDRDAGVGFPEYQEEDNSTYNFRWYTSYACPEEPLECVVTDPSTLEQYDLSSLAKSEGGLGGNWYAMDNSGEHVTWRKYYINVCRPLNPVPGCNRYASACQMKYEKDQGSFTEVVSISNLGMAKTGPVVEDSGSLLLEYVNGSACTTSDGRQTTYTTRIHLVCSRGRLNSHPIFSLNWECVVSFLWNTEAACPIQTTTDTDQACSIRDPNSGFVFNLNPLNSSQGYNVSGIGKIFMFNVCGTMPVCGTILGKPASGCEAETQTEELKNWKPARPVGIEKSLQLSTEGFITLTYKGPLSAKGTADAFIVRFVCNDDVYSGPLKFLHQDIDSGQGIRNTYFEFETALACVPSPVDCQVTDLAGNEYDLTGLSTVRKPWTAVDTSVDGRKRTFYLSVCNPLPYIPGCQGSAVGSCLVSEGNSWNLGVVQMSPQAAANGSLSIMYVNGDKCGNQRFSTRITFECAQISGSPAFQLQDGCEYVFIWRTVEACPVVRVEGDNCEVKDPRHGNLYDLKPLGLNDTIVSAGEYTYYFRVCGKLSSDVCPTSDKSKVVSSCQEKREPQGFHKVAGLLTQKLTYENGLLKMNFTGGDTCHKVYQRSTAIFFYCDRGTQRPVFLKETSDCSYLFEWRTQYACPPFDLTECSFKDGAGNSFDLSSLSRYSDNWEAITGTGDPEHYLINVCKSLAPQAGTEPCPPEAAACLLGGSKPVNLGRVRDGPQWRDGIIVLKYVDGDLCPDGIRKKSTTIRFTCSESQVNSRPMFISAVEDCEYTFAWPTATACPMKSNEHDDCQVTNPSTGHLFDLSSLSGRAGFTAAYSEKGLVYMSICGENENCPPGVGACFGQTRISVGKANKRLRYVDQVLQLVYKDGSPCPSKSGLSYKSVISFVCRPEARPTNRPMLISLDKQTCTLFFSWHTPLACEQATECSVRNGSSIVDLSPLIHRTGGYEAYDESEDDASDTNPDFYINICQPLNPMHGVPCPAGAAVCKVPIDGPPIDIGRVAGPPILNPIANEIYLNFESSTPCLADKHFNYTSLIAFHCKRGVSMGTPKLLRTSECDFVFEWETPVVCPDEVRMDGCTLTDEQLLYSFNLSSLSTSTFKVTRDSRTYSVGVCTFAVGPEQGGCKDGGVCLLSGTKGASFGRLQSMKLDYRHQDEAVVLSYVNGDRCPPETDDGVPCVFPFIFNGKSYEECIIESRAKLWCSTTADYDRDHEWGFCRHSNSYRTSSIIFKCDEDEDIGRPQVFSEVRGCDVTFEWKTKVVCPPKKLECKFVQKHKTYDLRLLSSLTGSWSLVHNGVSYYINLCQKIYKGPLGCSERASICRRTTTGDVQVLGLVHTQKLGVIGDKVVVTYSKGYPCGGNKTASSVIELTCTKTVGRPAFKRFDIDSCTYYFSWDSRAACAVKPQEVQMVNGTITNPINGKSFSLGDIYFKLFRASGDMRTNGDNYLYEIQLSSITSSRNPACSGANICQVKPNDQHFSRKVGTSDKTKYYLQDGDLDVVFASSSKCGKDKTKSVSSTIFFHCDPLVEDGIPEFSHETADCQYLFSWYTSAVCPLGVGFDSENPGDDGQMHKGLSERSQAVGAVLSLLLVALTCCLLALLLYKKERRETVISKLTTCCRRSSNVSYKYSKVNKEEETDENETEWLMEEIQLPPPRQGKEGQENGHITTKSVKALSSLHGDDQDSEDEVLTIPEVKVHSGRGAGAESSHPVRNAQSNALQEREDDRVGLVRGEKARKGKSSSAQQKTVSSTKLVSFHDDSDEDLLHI

Test [1] concerns the target T1, GFP-VAMP4 (pEGFP-VAMP4) (UniProt O75379).
T1 sequence: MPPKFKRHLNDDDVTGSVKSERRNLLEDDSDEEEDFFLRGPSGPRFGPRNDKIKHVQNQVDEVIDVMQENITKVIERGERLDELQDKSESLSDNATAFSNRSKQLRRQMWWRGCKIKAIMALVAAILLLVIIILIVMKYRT
Kind of test: co-IP; HEK293FT transfected with GFP-tagged VAMP4 or Syntaxin-6 (GFP alone as control); GFP-Trap agarose 1 h at 4°C; blotted for endogenous partners; for VPS52 also after siRNA against LRRK2 or RAB29 or a non-targeting control.

Test [2] concerns the target T2, GFP-Syntaxin6 (pEGFP-STX6) (UniProt O43752).
T2 sequence: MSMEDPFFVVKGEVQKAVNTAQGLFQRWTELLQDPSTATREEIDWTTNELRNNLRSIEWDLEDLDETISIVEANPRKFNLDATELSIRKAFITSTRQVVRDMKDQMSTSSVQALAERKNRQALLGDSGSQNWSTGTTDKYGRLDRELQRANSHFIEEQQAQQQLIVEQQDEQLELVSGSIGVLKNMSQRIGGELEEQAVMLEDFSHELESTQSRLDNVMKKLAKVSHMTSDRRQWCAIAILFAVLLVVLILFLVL
The test is described as above.

The target of test [3] is T3, 3xFLAG-tagged full-length RAB29 (p3x-flag-HD-DEST-RAB29) (UniProt O14966).
T3 sequence: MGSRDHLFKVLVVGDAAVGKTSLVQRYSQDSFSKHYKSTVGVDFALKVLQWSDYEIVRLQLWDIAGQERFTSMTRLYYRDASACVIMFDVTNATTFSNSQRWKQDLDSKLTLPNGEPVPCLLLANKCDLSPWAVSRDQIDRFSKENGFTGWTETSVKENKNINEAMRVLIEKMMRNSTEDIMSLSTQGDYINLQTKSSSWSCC
Kind of test: co-IP; HEK293FT transfected with 3xFLAG-tagged bait; lysate in 20 mM Tris-HCl pH 7.5, 150 mM NaCl, 1 mM EDTA, 0.3% Triton X-100, 10% glycerol; anti-flag M2 agarose 1 h at 4°C; eluted with 3xflag peptide; blotted for endogenous partners; mock and FLAG-GUS as negative controls.

Test [4] addresses T4, 3xFLAG-tagged full-length VPS52 (p3x-flag-HD-DEST-VPS52) (UniProt Q8N1B4).
T4 sequence: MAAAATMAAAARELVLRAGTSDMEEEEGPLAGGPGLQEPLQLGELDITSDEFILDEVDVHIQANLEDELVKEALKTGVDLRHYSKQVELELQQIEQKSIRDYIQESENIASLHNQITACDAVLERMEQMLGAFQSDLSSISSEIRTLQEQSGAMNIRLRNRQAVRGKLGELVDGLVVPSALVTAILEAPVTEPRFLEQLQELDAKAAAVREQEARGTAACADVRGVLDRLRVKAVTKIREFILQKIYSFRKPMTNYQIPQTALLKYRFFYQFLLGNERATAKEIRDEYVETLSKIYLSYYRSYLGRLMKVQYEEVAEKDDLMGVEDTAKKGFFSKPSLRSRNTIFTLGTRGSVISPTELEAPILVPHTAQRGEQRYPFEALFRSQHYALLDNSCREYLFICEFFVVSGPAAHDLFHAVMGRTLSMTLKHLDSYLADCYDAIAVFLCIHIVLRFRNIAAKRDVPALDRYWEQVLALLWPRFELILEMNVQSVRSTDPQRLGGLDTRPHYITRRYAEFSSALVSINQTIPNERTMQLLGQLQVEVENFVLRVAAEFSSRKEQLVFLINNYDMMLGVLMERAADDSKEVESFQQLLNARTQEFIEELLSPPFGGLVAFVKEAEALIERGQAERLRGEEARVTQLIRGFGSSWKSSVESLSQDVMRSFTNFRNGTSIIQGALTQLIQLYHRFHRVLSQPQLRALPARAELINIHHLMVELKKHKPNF
The description is as above.

The target in test [5] is 3xFLAG-tagged full-length LRRK2 (pCHMWS-3xflag-LRRK2) (UniProt Q5S007). The test is described as above.
Test [6] deals with T3, 3xFLAG-tagged full-length RAB29 (p3x-flag-HD-DEST-RAB29). Described as above. The source holds these as a separate data set.
The target in test [7] is 3xFLAG-tagged full-length LRRK2 (pCHMWS-3xflag-LRRK2) (UniProt Q5S007). The description is as above. The source holds these as a separate data set.
For test [8] the target is unchanged. The experiment in a line: co-IP; mapping: full-length LRRK2 and LRRK2 domain constructs in cells, blotted for endogenous VPS52 (Figure S2A); tags and beads not told for this experiment.
Test [9] addresses T2, GFP-Syntaxin6 (pEGFP-STX6). Kind of test: co-IP; HEK293FT transfected with GFP-tagged VAMP4 or Syntaxin-6 (GFP alone as control); GFP-Trap agarose 1 h at 4°C; blotted for endogenous partners; for VPS52 also after siRNA against LRRK2 or RAB29 or a non-targeting control. The source holds these as a separate data set.
For test [10], the target named is T1, GFP-VAMP4 (pEGFP-VAMP4). Described as above. The source holds these as a separate data set.

Read-outs that look alike come from different tables or passages of the source. No constants are given. Whether binding was seen depends on the method and setting. In cells and extracts the contact can be indirect. Some entries that bind do so weakly or less than the wild type. For some of these results: Tags and fused reporters may be left off the sequences shown.

“endogenous LRRK2 (from UniProt Q5S007 1-2527)”: the binding entry (with GFP-VAMP4 (pEGFP-VAMP4) [1]; in test [2]; in test [3]; in [4]) was “binds” in each case.
Consider “endogenous CI-M6PR (from UniProt P11717 41-2491) (receptor)”, for which the binding entry in [3], in test [4] and in test [5] was “binds” in each case.

B1: endogenous VPS52 (protein, UniProt Q8N1B4 1-723)
chain: T4 sequence
Consider B1, for which the binding result in test [6], in [7], in [8] and in [9] was “binds” in each case.

B2: endogenous RAB29 (protein, UniProt O14966 1-203)
chain: T3 sequence
As for B2, the binding entry (in the test with GFP-VAMP4 (pEGFP-VAMP4) [10]; in [9]) was “no binding” in each case.
